Data from the supplement of paper PMC6089552.
Hit rate of the full screen: of about 3,200 compounds, about 300 (9.4%) showed activity. Only a part is listed here, and it is no random draw.

System: A673/TR/shEF
Experiment: cell viability (LOESS-normalised, relative to median of negative controls) (log2 ratio); higher = more viable cells (less compound effect), active = hit call of the paper (over 3 MAD below the median)
Details: treatment time: 72 h
In short: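 A673/TR/shEF Ewing sarcoma cells were plated at 1,500 per well in 384-well plates and cultured with or without doxycycline, added 24 h before compounds, to induce EWS-FLI1 shRNA knockdown. Library compounds at two or more concentrations, alongside DMSO controls, were applied for three days. Cell viability was measured by CellTiter-Glo luminescence on an Envision reader. Readings were LOESS-corrected per plate, divided by the median of negative controls and log2-transformed, and hits were wells lying at least three median absolute deviations from the median of all screened wells.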

[1] = 0.25 µM, library screen: screen1, EWS-FLI1 expression: high (no doxycycline)
[2] = 0.25 µM, library screen: screen1, EWS-FLI1 expression: low (doxycycline-induced shRNA knockdown)
[3] = 0.25 µM, library screen: screen2, EWS-FLI1 expression: high (no doxycycline)
[4] = 0.25 µM, library screen: screen2, EWS-FLI1 expression: low (doxycycline-induced shRNA knockdown)
[5] = 2.5 µM, library screen: screen1, EWS-FLI1 expression: high (no doxycycline)
[6] = 2.5 µM, library screen: screen1, EWS-FLI1 expression: low (doxycycline-induced shRNA knockdown)
[7] = 2.5 µM, library screen: screen2, EWS-FLI1 expression: high (no doxycycline)
[8] = 2.5 µM, library screen: screen2, EWS-FLI1 expression: low (doxycycline-induced shRNA knockdown)
[9] = 0.103 µM, library screen: screen3, EWS-FLI1 expression: high (no doxycycline)
[10] = 0.103 µM, library screen: screen3, EWS-FLI1 expression: low (doxycycline-induced shRNA knockdown)
[11] = 0.308 µM, library screen: screen3, EWS-FLI1 expression: high (no doxycycline)
[12] = 0.308 µM, library screen: screen3, EWS-FLI1 expression: low (doxycycline-induced shRNA knockdown)
[13] = 0.926 µM, library screen: screen3, EWS-FLI1 expression: high (no doxycycline)
[14] = 0.926 µM, library screen: screen3, EWS-FLI1 expression: low (doxycycline-induced shRNA knockdown)
[15] = 2.8 µM, library screen: screen3, EWS-FLI1 expression: high (no doxycycline)
[16] = 2.8 µM, library screen: screen3, EWS-FLI1 expression: low (doxycycline-induced shRNA knockdown)
[17] = 8.3 µM, library screen: screen3, EWS-FLI1 expression: high (no doxycycline)
[18] = 8.3 µM, library screen: screen3, EWS-FLI1 expression: low (doxycycline-induced shRNA knockdown)
[19] = 25 µM, library screen: screen3, EWS-FLI1 expression: high (no doxycycline)
[20] = 25 µM, library screen: screen3, EWS-FLI1 expression: low (doxycycline-induced shRNA knockdown)

Measured: cell viability (log2)

COc1ccc([C@@H]2Sc3ccccc3N(CCN(C)C)C(=O)[C@@H]2OC(C)=O)cc1
inactive: [1] 0.0386 | [2] 0.0682 | [3] 0.106 | [4] 0.0709 | [5] 0.0866 | [6] 0.0597 | [7] 0.0713 | [8] 0.103

COC(=O)[C@@H](N)CS
inactive: [1] 0.101 | [2] 0.145 | [5] 0.175 | [6] 0.25

Cc1cn([C@H]2C[C@H](N=[N+]=[N-])[C@@H](CO)O2)c(=O)[nH]c1=O
active: [1] -0.142 | [5] -1.07 | [6] -0.798

Cc1c(NC(=O)OC[C@@H]2COCCN2)cn2ncnc(Nc3ccc4c(cnn4Cc4cccc(F)c4)c3)c12
inactive: [9] 0.0336 | [10] 0.0451 | [11] -0.0266 | [12] 0.00787 | [13] -0.0039 | [14] 0.096 | [15] 0.0301 | [16] 0.0282 | [17] -0.00249 | [18] 0.0357 | [19] 0.0034 | [20] -0.0539

CCCCCCOC(=O)/N=C(/N)c1ccc(NCc2nc3cc(C(=O)N(CCC(=O)OCC)c4ccccn4)ccc3n2C)cc1
active: [19] -0.441

CC(C[N+](C)(C)C)OC(N)=O (stereo not given)
inactive: [9] 0.057 | [10] 0.109 | [1] 0.0686 | [2] 0.0454 | [3] 0.239 | [4] 0.148 | [11] 0.102 | [12] 0.149 | [13] 0.0923 | [14] 0.122 | [5] 0.144 | [6] 0.101 | [7] 0.158 | [8] 0.103 | [15] 0.117 | [16] 0.0588 | [17] 0.0626 | [18] 0.0961 | [19] 0.17 | [20] 0.09

NCC(=O)CCC(=O)O
inactive: [9] 0.0878 | [10] 0.0931 | [1] 0.0472 | [2] 0.0573 | [11] 0.0223 | [12] 0.00305 | [13] 0.0307 | [14] 0.0277 | [5] 0.0883 | [6] -0.128 | [15] -0.0213 | [16] 0.0259 | [17] 0.00995 | [18] 0.0734 | [19] -0.00962 | [20] 0.017

NC(=O)c1ccc[n+]([C@@H]2O[C@H](COP(=O)([O-])OP(=O)(O)OC[C@H]3O[C@@H](n4cnc5c(N)ncnc54)[C@H](O)[C@@H]3O)[C@@H](O)[C@H]2O)c1
inactive: [1] 0.115 | [2] 0.054 | [5] 0.157 | [6] 0.00843

Oc1ccc(C2CNCc3sccc32)cc1O (stereo not given)
inactive: [3] 0.169 | [4] 0.0314 | [7] 0.167 | [8] 0.0867

COc1ccc(CN(CCN(C)C)c2ncccn2)cc1
inactive: [1] 0.0875 | [2] 0.088 | [5] 0.119 | [6] 0.139

N=C(N)SCCc1ccc(CCSC(=N)N)cc1
inactive: [3] 0.11 | [4] 0.0349 | [7] 0.176 | [8] 0.078

COc1c2ccoc2cc2oc(C)cc(=O)c12
inactive: [1] 0.0282 | [2] 0.0455 | [5] 0.0257 | [6] -0.0152

C1CCN2C[C@H]3C[C@H](CN4CCCC[C@@H]34)[C@H]2C1
inactive: [1] 0.0574 | [2] 0.016 | [5] 0.142 | [6] 0.0171

Cc1ccc(C)c(OCCCC(C)(C)C(=O)O)c1
inactive: [9] 0.159 | [10] -0.0254 | [1] 0.0797 | [2] 0.0418 | [11] 0.0792 | [12] 0.066 | [13] 0.0799 | [14] 0.0486 | [5] 0.187 | [6] 0.0489 | [15] 0.0969 | [16] 0.0664 | [17] 0.0304 | [18] 0.0281 | [19] 0.106 | [20] 0.0901

O=c1[nH]c2cc(Cl)ccc2c(O)c1-c1cccc(Oc2ccccc2)c1
inactive: [3] 0.13 | [4] 0.0448 | [7] 0.0586 | [8] 0.0631

C=CCN1CCc2c(cc(O)c(O)c2Cl)C(c2ccccc2)C1 (stereo not given)
inactive: [3] 0.21 | [4] 0.0813 | [7] 0.254 | [8] 0.104

O=C(O)C[C@H](O)C[C@H](O)/C=C/c1c(C2CC2)nc2ccccc2c1-c1ccc(F)cc1
active: [13] -0.533 | [14] -0.345 | [15] -1.53 | [16] -0.986 | [17] -2.09 | [18] -1.25 | [19] -3.51 | [20] -3.56
